In PubChem BioAssay AID488969 (Vanderbilt High Throughput Screening Facility, 2010) one finds z-score data, which are given here for 111 compounds.

The full ranking holds about 110,000 compounds; the median of “z-score” is about -0.1, and the highest 2% start at about 2. The list shows a part of the results.

For this test, the target named is Metabotropic glutamate receptor 8 (Rattus norvegicus) (UniProt P70579). Nature of the test: rat mGluR8 modulators via GIRK flux, primary screen, cell-based, thallium flux, HTS (AID 488969). As to conditions: HEK293 rat mGluR8, GIRK (G protein-gated inwardly rectifying potassium channel) thallium flux, FluoZin2; at 10 µM; stronger effect = higher value; submaximal glutamate (EC20) added with thallium.
Sequence of UniProt P70579 (P70579 whole entry, looked up): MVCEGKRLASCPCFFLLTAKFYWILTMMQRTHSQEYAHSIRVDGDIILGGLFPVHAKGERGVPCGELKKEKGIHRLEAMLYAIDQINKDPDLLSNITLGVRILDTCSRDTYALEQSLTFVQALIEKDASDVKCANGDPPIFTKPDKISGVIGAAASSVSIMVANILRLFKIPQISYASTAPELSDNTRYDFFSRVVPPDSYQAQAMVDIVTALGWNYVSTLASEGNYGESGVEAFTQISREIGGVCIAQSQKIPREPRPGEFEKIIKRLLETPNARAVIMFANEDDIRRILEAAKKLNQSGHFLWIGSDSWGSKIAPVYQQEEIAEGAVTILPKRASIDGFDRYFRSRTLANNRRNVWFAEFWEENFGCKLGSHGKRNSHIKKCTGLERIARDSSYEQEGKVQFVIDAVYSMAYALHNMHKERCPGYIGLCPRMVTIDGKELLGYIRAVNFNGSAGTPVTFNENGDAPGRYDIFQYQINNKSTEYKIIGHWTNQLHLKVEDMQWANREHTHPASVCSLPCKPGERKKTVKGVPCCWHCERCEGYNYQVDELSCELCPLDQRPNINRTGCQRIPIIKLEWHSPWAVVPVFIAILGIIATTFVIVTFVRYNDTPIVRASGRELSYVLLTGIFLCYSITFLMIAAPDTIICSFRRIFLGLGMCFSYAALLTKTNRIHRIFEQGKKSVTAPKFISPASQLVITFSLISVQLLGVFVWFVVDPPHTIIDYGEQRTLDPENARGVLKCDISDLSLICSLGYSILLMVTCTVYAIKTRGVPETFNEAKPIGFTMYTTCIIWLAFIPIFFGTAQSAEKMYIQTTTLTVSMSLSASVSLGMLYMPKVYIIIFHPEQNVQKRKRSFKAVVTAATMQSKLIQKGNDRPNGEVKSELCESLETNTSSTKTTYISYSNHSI
`Cc1ccccc1-n1c(C)cc(/C=C2\NC(=O)NC2=O)c1C`: the z-score amounted to 0.0101.
The value for `Cn1c(SCC(=O)Nc2ccc3cn[nH]c3c2)nnc1-c1cccs1` was -0.291.
With `CCC(=O)n1nc(NCc2ccccc2OC)nc1NCc1ccccc1OC` the figure was -0.224; with `COc1nc(N=C(N)N)nc2ccc(C)cc12`, -0.127; with `Cc1nc2ncnn2c(C)c1CCC(=O)NCCc1ccccc1`, -0.181.
The compound `CC(=O)OC1c2ccccc2C(=O)N1Cc1ccccc1` (stereo unspecified) displayed a z-score of -0.229.
With `CNC(=O)CSc1nnnn1CCCOC` the figure was 0.0742; with `CCN(CC(=O)N1CCN(c2ccccc2)CC1)S(=O)(=O)c1ccc(C)cc1`, -0.0364.
Compound `CS(=O)(=O)c1cccc(C(=O)NC(c2ccccc2)c2ccccc2)c1` came in with a z-score of 0.145.
The value for `CSCCC(NS(=O)(=O)c1cccs1)C(=O)NCc1cccs1` (stereo unspecified) was 0.0942; that for `CCc1nnc(NC(=O)CSc2nc(C)c3c(c2C#N)CCCC3)s1` was -1.22.
The value for `COc1ccc(C(=O)NCCSCc2ccc(C)cc2)cc1` was -0.627.
Compound `COc1ccc(N2CCN(C(=O)CSc3nnc4nc(C)cc(C)n34)CC2)cc1` yielded a z-score of 0.0305.
`COc1cccc(C(=O)NCC(c2cccnc2)N2CCN(c3ccccc3OC)CC2)c1` (stereo unspecified) registered a z-score of -1.75.
`CCOC(=O)n1c(=O)oc2cc(S(=O)(=O)N3CCCCC3)ccc21` came in with a z-score of -0.387.
For `Cc1ccc(S(=O)(=O)Nc2ccc(N3CCOCC3)cc2)cc1`, the z-score came out at 0.255.
As to `NC(=O)C1CCN(c2oc(-c3ccccc3F)nc2S(=O)(=O)c2ccc(Cl)cc2)CC1`, the z-score was -0.139.
The value for `O=CNC(Cc1ccccc1)C(=O)O` (stereo unspecified) was 1.94; that for `Cc1noc(C)c1S(=O)(=O)N1CCN(C(c2ccccc2)c2ccc(Cl)cc2)CC1` (stereo unspecified) was 0.28.
The value for `Nc1nc(OCC(F)(F)F)cc(Oc2ccccc2F)n1` was -0.33; that for `COc1ccc(-c2nnn(CC(=O)NCc3cccs3)n2)cc1OC` was 0.25; that for `Cc1ccccc1CSCC(=O)NC1CCCC1` was -0.358.
Take `CN1C(=O)C2(c3ccccc31)N(C)CC(c1ccccn1)C21SC(=S)N(Cc2ccco2)C1=O` (stereo unspecified): the z-score was 0.441.
`CS(=O)(=O)N1CCC(C(=O)NCc2ccco2)CC1` came in with a z-score of 0.432.
With `N#CCCn1ncc2ccccc21` the figure was 0.255.
Compound `CSc1nc(NCC(C)C)nc(N2CCOCC2)n1` showed a z-score of -0.452.
As for `O=C1Nc2ccccc2Nc2ncccc21`, the z-score is -0.823.
Turning to `CCN(CC)c1ccc(C=C2C(=O)OC3(CCCC3)OC2=O)cc1`, the z-score is -0.152.
With `COc1ccc(NC(C#N)c2ccc(OC)cc2)cc1` (stereo unspecified), the z-score is -0.113.
With `O=C1Oc2ccccc2C2(O)C3CCCCCC3C12` (stereo unspecified) the figure was -0.124; with `CCOc1cc(C=O)ccc1OS(=O)(=O)c1ccc(NC(C)=O)cc1`, -0.721; with `CCOc1ccc(-n2c(N)c(-c3nc4ccccc4[nH]3)sc2=S)cc1`, 0.509.
With `Cc1cc(Br)c2nc3c(c(C(=O)O)c2c1)CCCCC3` the figure was -0.438.
Take `O=C(c1ccco1)N1CCN(C2CC(=O)N(c3ccc4c(c3)OCO4)C2=O)CC1` (stereo unspecified): the z-score was determined as 0.168.
With `O=S(=O)(c1ccc(F)cc1)c1nc(-c2ccco2)oc1Nc1ccccc1` the figure was 0.572; with `CCN(CC)S(=O)(=O)c1cccc(C(=O)Nc2cc3oc4ccccc4c3cc2OC)c1`, -0.12.
With `CCNc1nc(NC(C)C)nc(NS(=O)(=O)c2ccc(Cl)cc2)n1` the figure was 0.57; with `CCCC12CN3CCN(CC(C3)/C1=N\NC(=O)c1ccc(C(C)(C)C)cc1)C2`, -0.345.
In turn, `O=c1c2ccccc2cnn1Cc1n[nH]c(=S)n1-c1ccc(Cl)cc1` yielded a z-score of -0.112.
In the case of `COC(=O)C1=C(C)N(c2ccc(C)c(C)c2)/C(=C/c2cccs2)C1=O`, the z-score was -0.788.
As to `NS(=O)(=O)c1ccc(CCNc2ncnc3c2c(-c2ccccc2)cn3-c2ccc(F)cc2)cc1`, the z-score was -0.435.
As to `Cc1cccc(C(=O)Oc2ccccc2C2C[C@]3(C)CC(=O)NC3N2C(=O)c2cccc(C)c2)c1` (stereo partly specified), the z-score was -0.253.
Take `COc1cc(-c2nnc(-c3ccc(S(=O)(=O)c4ccccc4)cc3)o2)cc(OC)c1OC`: the z-score is -0.312.
The value for `CC1(O)N(Cc2ccccc2)C(=O)OC12CCCCC2` (stereo unspecified) was -0.284; that for `O=C(Oc1ccccc1N1C(=O)C2CCCCC2C1=O)c1ccccc1` (stereo unspecified) was -0.131; that for `CSc1nnc(-c2cccc(C)c2)n1N` was -0.0746.
The value for `CCOC(=O)CSc1nnc(CCc2nc3ccccc3[nH]2)n1C` was -0.105; that for `O=C(O)c1ccc2nc(-c3ccccc3)c(-c3ccccc3)nc2c1` was -0.169; that for `CCOC(=O)c1cccc(-n2c(C)nc3ccccc3c2=O)c1` was -0.552.
In turn, `Cc1ccc2cccc(Oc3ccc([N+](=O)[O-])cc3[N+](=O)[O-])c2n1` registered a z-score of -0.181.
The value for `Cc1cc(C)n(-c2nnc(NC34CC5CC(CC(C5)C3)C4)nn2)n1` was 0.433.
With `Cc1cc(NCCCN2CCOCC2)n2ncc(-c3ccc(Cl)cc3)c2n1` the figure was 0.369.
With `CCOC(=O)C(NC(=O)CC)(Nc1ccc(S(=O)(=O)Nc2onc(C)c2C)cc1)C(F)(F)F` (stereo unspecified) the figure was 0.0428.
`C/C(=N\NC(=O)c1nn(C)cc1Br)c1cccc(NC(=O)C(C)(C)C)c1` yielded a z-score of -0.156.
The value for `CC(C)OC(=O)CSc1nnc(-c2cccnc2)n1Cc1ccccc1` was -0.0914; that for `CCOC(=O)c1cc(-c2ccc(OC)cc2)nc2c1c(C)nn2CCC#N` was -0.93.
With `COc1ccc(-c2nnc3n(CCc4ccccc4)c(=O)c4ccccc4n23)cc1OC` the figure was 0.848.
The compound `COc1ccc(Nc2nc(C)nc3c2nnn3Cc2ccccc2)cc1OC` displayed a z-score of -1.28.
In the case of `Cc1ccc(NC(=O)C2CC(=O)N/C(=N/N=C/c3ccco3)S2)cc1C` (stereo unspecified), the z-score was -0.259.
The value for `O=C(C/C=N/OCc1c(Cl)cccc1Cl)c1ccccc1` was -0.2; that for `Clc1ccc(OCCCc2nc(-c3ccncc3)no2)c(Cl)c1` was 0.544.
For `CC(=O)N(C)C1(c2nnnn2CCOC(=O)Nc2ccc(Cl)cc2)CCCCC1`, the z-score is -0.293.
Turning to `OC1CN=C2CCCc3c2n(c2ccc(Cl)cc32)C1` (stereo unspecified), the z-score was -0.735.
`CN1CCCCc2c1nc1c(c2N)CCCC1` registered a z-score of 0.627.
With `CCOC(=O)c1c(NC(=O)c2cc(CC(C)C)on2)sc(C(C)=O)c1C` the figure was 0.0495; with `CC1CN(C(=S)NC(=O)c2ccco2)CC(C)O1` (stereo unspecified), -0.326; with `CCCCNC(=O)c1onc(CSc2cccc(OCC)c2)c1C(=O)O`, -0.682.
With `Cc1ccc(NC(=O)NNC(=O)c2cccs2)cc1` the figure was 0.53.
Turning to `O=C1c2ccccc2C(=O)N1CCC(c1ccccc1)c1ccco1` (stereo unspecified), the z-score was -0.917.
The value for `COc1cc(C(=O)n2nc(C)cc2C)ccc1O` was 0.857; that for `COc1ccc(CCNC(=O)CNCC2CCCO2)cc1OC` (stereo unspecified) was 0.933.
In turn, `COc1ccccc1OCC(=O)N1CCNC1=O` had a z-score of 0.0488.
In turn, `O=C(Cn1c2ccccc2c(=O)c2ccccc21)N/N=C/c1ccc(N2CCCC2)c([N+](=O)[O-])c1` returned a z-score of -0.124.
With `Cc1ccc(NS(=O)(=O)c2ccc(OCC(=O)NCc3ccncc3)cc2)cc1` the figure was -0.121; with `COc1cc(OC)cc(C(=O)Nc2ccc(S(=O)(=O)N(C)C)cc2)c1`, -0.565.
`c1ccc(CNc2c3c(nc4ncnn24)CCCC3)nc1` had a z-score of 0.075.
With `COc1ccccc1C/C(N)=N/OC(=O)COc1ccc2ccccc2c1` the figure was -0.0605; with `N#Cc1ccc(-c2ccc(F)cc2)nc1SCC(=O)Nc1sc2c(c1C#N)CCC2`, 0.116.
The value for `Cc1ccc(-c2cc(C#N)c(=O)n(Cc3c(Cl)cccc3Cl)c2)cc1` was -0.0931; that for `COc1ccc(S(=O)(=O)Nc2cc([N+](=O)[O-])ccc2OC)cc1` was -0.0521; that for `CCCCOc1ccc(C(=O)Nc2ccc(N3CCN(C)CC3)cc2)cc1` was 0.256.
With `Cc1ccc(-n2nc(C(=O)O)c3ccccc3c2=O)cc1C` the figure was -2.04; with `CC(=O)Nc1cccc(OC(=O)c2ccoc2C)c1`, -0.306.
Turning to `COC(=O)c1c(Oc2nc(OC)cc(OC)n2)cccc1Oc1nc(OC)cc(OC)n1`, the z-score was -0.252.
The value for `O=C(Nc1ccccc1N1CCCCC1)c1ncoc1-c1ccc(F)cc1` was 0.16; that for `O=C(Nc1ccc(Cl)cc1)/C(=C/c1cccc(O)c1)c1nc2ccccc2s1` was -1.57.
Turning to `Cc1ccccc1NC(=O)Cc1nnc(SCC(=O)N2CCN(c3ccccc3)CC2)n1C`, the z-score is -0.143.
With `COc1ccc(-c2nnc(SCC(=O)Nc3cc(C)on3)n2C)cc1OC` the figure was -0.484; with `CN1c2ccccc2C(O)=C(C(=S)Nc2ccc(Cl)cc2)S1(=O)=O`, 1.19.
With `O=C(CSCCN1C(=O)c2ccccc2C1=O)Nc1ccc2ccccc2c1` the figure was -0.224.
Compound `O=C(NCC1OCCc2ccccc21)c1ccco1` (stereo unspecified) returned a z-score of 0.257.
Regarding `CC1=C(C(=O)Nc2ccccc2Cl)C(c2ccc(N(C)C)cc2)NC(=O)N1` (stereo unspecified), the z-score was -0.0926.
The value for `Cc1ccc(SCC(=O)Nc2cccc(NC(=O)c3ccco3)c2)cc1` was -0.457; that for `CC(C)(C)C(=O)NC(=S)Nc1sc2c(c1C#N)CCCCC2` was -0.0826.
Turning to `CCCC(=O)N1CCCC(c2nc(-c3cccs3)no2)C1` (stereo unspecified), the z-score was determined as 0.068.
The value for `CCCOC(=O)c1c(NC(=O)CSc2nc(-c3ccco3)cc(C(F)(F)F)n2)sc(C(=O)OC)c1C` was 0.188; that for `O=C1/C(=C/c2cccc3ccccc23)CCCc2ccccc21` was -0.0381.
The value for `O=C(CN1CCN(c2ccccc2)CC1)Nc1nnc(-c2ccccc2)s1` was 0.193; that for `Cc1nc2sc(-c3ccccc3)cc2c(=O)n1-n1cccc1` was 0.432.
As to `COc1cc2c(cc1NC(=O)COC(=O)[C@@H](NS(=O)(=O)c1cccc(Cl)c1)C(C)C)oc1ccccc12`, the z-score was -0.298.
As for `Cc1occc1-c1nnc(SCC(=O)NCc2cccs2)n1CC1CCCO1` (stereo unspecified), the z-score is 0.641.
With `CCOc1ccc(C(=O)NCC(=O)OCc2c(F)cccc2Cl)cc1` the figure was -0.282; with `CSCC[C@H](NC(=O)C1CCN(S(=O)(=O)c2ccc(C)cc2)CC1)C(=O)NCC1CCCO1` (stereo partly specified), 0.57.
Consider `COc1ccc(OC)c2sc(NC(=O)C3COc4ccccc4O3)nc12` (stereo unspecified), for which the z-score came out at 0.957.
With `CCOC(=O)c1sc2nc(NC(=O)C3CC3)sc2c1C` the figure was 0.658; with `CCN1CCN(C(=O)CN(CCc2ccccc2)S(C)(=O)=O)CC1`, 0.37.
Compound `CN(C)C(=O)CSCc1c(Cl)cccc1Cl` gave a z-score of 0.281.
The value for `CCOC(=O)c1c(N)sc2c(OC)c(Br)ccc12` was 0.484.
The value for `Cc1ccc(S(=O)(=O)/N=C(\c2ccc(F)cc2)n2c(C)nc3ccccc32)cc1` was -0.0726; that for `COc1ccc(-c2nsc3c(N4CCCC4)ncnc23)cc1` was -0.106; that for `COc1ccc(-c2cc(C(=O)Nc3sc4c(c3C#N)CCCC4)c3ccccc3n2)cc1` was 0.233.
